Laboratory results reported in patent publication US11891445 (ABL BIO, dated 2024).

Legend:
[1] = biological target: T1, recombinant human B7-H3 protein (bought antigen used for ELISA analysis and T cell activity analysis) (human, UniProt Q5ZPR3 29-461); assay: ELISA on plate-coated recombinant human B7-H3 (1 ug/ml), HRP anti-human IgG F(ab')2 detection
T1 construct: range 1-461; also called extracellular domain (ECD) of B7-H3 protein; not shown: C-terminal histidine tag or Fc region of human IgG1 (Sino Biological 11188-H02H)
T1 sequence (looked up): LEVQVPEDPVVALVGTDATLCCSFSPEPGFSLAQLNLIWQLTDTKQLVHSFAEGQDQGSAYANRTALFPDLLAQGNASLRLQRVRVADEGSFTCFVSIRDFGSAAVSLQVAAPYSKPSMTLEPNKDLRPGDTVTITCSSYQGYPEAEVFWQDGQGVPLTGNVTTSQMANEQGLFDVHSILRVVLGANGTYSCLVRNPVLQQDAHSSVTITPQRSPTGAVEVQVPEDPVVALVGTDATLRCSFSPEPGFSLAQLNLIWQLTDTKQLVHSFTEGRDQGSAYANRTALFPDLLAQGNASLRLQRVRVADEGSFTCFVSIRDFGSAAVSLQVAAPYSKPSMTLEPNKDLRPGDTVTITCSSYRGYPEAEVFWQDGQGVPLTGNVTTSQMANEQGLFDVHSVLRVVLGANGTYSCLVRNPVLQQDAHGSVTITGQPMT
Description: Specifically, after diluting the recombinant human B7-H3 protein at a concentration of 1 µg/ml and putting it into a 96-well plate (Nunc-Immuno Plates, NUNC) in 100 µl per well, it was reacted at 4° C. for 16 hrs for coating. The recombinant human B7-H3 protein used in Example 1 was used here.
Then, after removing the protein and washing it with PBST, a PBS buffer comprising 1% BSA (bovine serum albumin) was put at 200 µl per well and it was reacted at 37° C. for 2 hrs to block non-specific binding. Then, after diluting anti-B7-H3 antibodies prepared in Example 2 at a concentration of 10 µg/ml on the 96-well plate, 100 µl was put in each well and it was reacted at 37° C. for 1 hr. Then after it was washed with PBST. In order to detect antibodies bound to human B7-H3, HRP-connected anti-human IgG F(ab')2 antibody (Goat anti-Human IgG F(ab')2 Cross-Adsorbed Secondary Antibody, HRP, Pierce, 31414) was diluted by 1:10,000 in PBS comprising 1% bovine serum albumin (BSA), and 100 µl was put per well and it was reacted at 37° C. for about 1 hr. After washing it with PBST again, TMB (Tetramethylbenzidine, Sigma, T0440) 100 µl was put to develop color. After reacting it at RT for 5-10 min, 50 µl of 1N H_2SO_4 was put to finish the reaction, and the absorbance at 450 nm and 650 nm was measured by using a micro plate reader (molecular device).

[2] = biological target: T2, human B7-H3 expressed on a cell surface (human cancer cell lines) (human, UniProt Q5ZPR3 29-534); assay: flow cytometry, 786-0 cells, antibody 10 ug/ml
T2 construct: whole, on cells; also called cell surface expression B7-H3 antigen
T2 sequence (looked up): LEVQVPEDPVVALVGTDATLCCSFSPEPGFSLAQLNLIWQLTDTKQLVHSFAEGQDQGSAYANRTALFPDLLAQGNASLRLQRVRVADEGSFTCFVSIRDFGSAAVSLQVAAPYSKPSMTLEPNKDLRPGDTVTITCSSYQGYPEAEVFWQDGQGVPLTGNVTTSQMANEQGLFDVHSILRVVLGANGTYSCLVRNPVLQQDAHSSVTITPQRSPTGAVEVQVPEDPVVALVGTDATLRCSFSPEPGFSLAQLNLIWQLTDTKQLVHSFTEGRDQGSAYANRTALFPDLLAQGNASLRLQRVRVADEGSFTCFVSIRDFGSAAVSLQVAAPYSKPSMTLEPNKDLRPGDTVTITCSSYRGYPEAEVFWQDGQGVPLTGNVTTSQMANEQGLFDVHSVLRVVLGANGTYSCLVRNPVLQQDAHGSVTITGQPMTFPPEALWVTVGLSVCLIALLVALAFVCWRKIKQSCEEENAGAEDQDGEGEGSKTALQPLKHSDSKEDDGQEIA
Excerpt: (§1) Using various kinds of cancer cells A2780 (human ovarian cancer, ECACC, 93112519), SKOV-3 (human ovarian adenocarcinoma, ATCC® HTB-77™) OVCAR-3 (human ovarian adenocarcinoma, ATCC® HTB-161™), HCT116 (colon cancer cell, ThermoFIshcer Sci), HT29 (olorectal adenocarcinoma, ATCC® HTB-38™), DLD-1 (colorectal adenocarcinoma cell lines, ATCC® CCL-221™), Calu-6 (Non-small-cell lung carcinoma, ATCC® HTB-56™), HCC1954 (TNM stage IIA, grade 3, ductal carcinoma, ATCC® CRL-2338™), HCC1187 (TNM stage IIA, ATCC® CLC-2322™), renal cancer cell line 786-0 (renal cell adenocarcinoma, ATCC® CRL-1932™), A498 (kidney carcinoma, ATCC® HTB-44™), Panc-1 (pancreas epithelioid carcinoma, TCC CRL-1469™), NCI-N87 (gastric carcinoma, TCC CRL-5822™), HeLa (cervix adenocarcinoma, ATCC® CCL-2™), JeKo-1 (Lymphoma, ATCC® CRL-3006™) and FACSCalibur (BD Biosciences) device, the degree of binding of anti-B7-H3 antibody to B7-H3 was measured as follows.
(§2) After dissociating each cell line and washing it with PBS buffer, the number of cells was counted and adjusted to 2×10^5 cells/200 µl PBS, and then was treated with 10 µg/ml of B7-H3 monoclonal antibodies prepared in Example 2. Reaction was allowed at 4° C. for 1 hr. After washing the reacted cells in PBS, the FITC-labeled constant region (Fc)-specific antibody (Goat anti-human IgG FITC conjugate, Fc specific, Sigma, F9512, concentration: 2.0 mg/ml)) was diluted by 1:500 and added 100 µl per well. and Reaction was allowed at 4° C. for 1 hr. After the reaction, cells were washed in PBS and analyzed using the FACSCalibur device. The negative control group was treated by the FITC-labeled constant region (Fc) specific antibody only. To compare expression degrees of B7-H3 among different cancer cell lines, the value for the peak shift in the experimental groups treated with the B7-H3 monoclonal antibody was divided by the value for the peak shift in the negative control group (MFI Ratio, Mean Fluorescence Intensity Ratio).

[3] = biological target: T2, human B7-H3 expressed on a cell surface …; assay: flow cytometry, HT29 cells, antibody 10 ug/ml
Excerpt: as §1, §2

[4] = biological target: T2, human B7-H3 expressed on a cell surface …; assay: flow cytometry, SKOV-3 cells, antibody 10 ug/ml
Excerpt: as §1, §2

[5] = biological target: T2, human B7-H3 expressed on a cell surface …; assay: flow cytometry, Hela cells, antibody 10 ug/ml
Excerpt: as §1, §2

EC50 (read off the curve) [1]: ~0.1 nM
MFI Ratio [2]: 32 ratio
MFI Ratio [3]: 17.6 ratio
MFI Ratio [4]: 29.5 ratio
MFI Ratio [5]: 38.7 ratio
B2: anti-B7-H3 antibody B5 (full IgG form) (antibody)
heavy: EVQLLESGGGLVQPGGSLRLSCAASGFTFSDYAMSWVRQAPGKGLEWVSSISSGSGSIYYADSVKGRFTISRDNSKNTLYLQMNSLRAEDTAVYYCAKNLIPLDYWGQGTLVTVSS[human IgG1 constant region not shown]
light: QSVLTQPPSASGTPGQRVTISCSGSSSNIGSNAVSWYQQLPGTAPKLLIYYNSHRPSGVPDRFSGSKSGTSASLAISGLRSEDEADYYCGSWDASLNAYVFGGGTKLTVLGQPKAAPSVTLFPPSSEELQANKATLVCLISDFYPGAVTVAWKADSSPVKAGVETTTPSKQSNNKYAASSYLSLTPEQWKSHRSYSCQVTHEGSTVEKTVAPAECS

EC50 (read off the curve) [1]: ~0.2 nM
MFI Ratio [2]: 24 ratio
MFI Ratio [3]: 12.7 ratio
MFI Ratio [4]: 20.4 ratio
MFI Ratio [5]: 26.1 ratio
B3: anti-B7-H3 antibody C4I (full IgG form) (antibody)
heavy: B2 heavy with D31G, A33Y, S50L, S53P, G54S, N99G, I101T, P102K, L103F
light: B2 light with S23T, A33D, Y51A, A94D, N97S, A98G
notes: also called C41

EC50 (read off the curve) [1]: ~0.1 nM
MFI Ratio [2]: 33 ratio
MFI Ratio [3]: 15.9 ratio
MFI Ratio [4]: 27.7 ratio
MFI Ratio [5]: 42.7 ratio
B4: anti-B7-H3 antibody F6V (full IgG form) (antibody)
heavy: EVQLLESGGGLVQPGGSLRLSCAASGFTFSDYAMSWVRQAPGKGLEWVSGISPGGSNTYYADSVKGRFTISRDNSKNTLYLQMNSLRAEDTAVYYCAKDAWIARLLLFDYWGQGTLVTVSS[human IgG1 constant region not shown]
light: B2 light with S35T, S53N, H54K, S91T, A94D, N97S, A98G

The remaining lines, values behind:

B1: anti-B7-H3 antibody D8G (full IgG form) (antibody)
heavy: EVQLLESGGGLVQPGGSLRLSCAASGFTFSSYSMSWVRQAPGKGLEWVSGIYSDGSNTYYADSVKGRFTISRDNSKNTLYLQMNSLRAEDTAVYYCAKMLHRFDYWGQGTLVTVSS[human IgG1 constant region not shown]
light: B2 light with A33S, S35T, Y51A, N52D, H54Q, S91T, A94S
EC50 (read off the curve) [1]: ~0.2 nM
MFI Ratio [2]: 22 ratio
MFI Ratio [3]: 11.9 ratio
MFI Ratio [4]: 23.3 ratio
MFI Ratio [5]: 30.2 ratio

B5: anti-B7-H3 antibody 10F11 (full IgG form) (antibody)
heavy: B1 heavy with S33G, D54G, N57S, T58K, M99N, L100R, H101L
light: B2 light with S23T, A33S, S35T, Y51S, N52D, S91T
EC50 (read off the curve) [1]: ~0.2 nM
MFI Ratio [2]: 34 ratio
MFI Ratio [3]: 18.7 ratio
MFI Ratio [4]: 28.5 ratio
MFI Ratio [5]: 40.6 ratio

Changes are numbered by the printed parent chain. Names may count otherwise. Each block holds one binder with its values, some of them ahead of it.
